In PubChem BioAssay (Tox21):
Values joined by “and” are separate entries in the source; they are usually repeats but may differ in a detail not shown here. Equal values may be shown once. The shares of active, inactive and inconclusive entries below differ from those in the screen. For part of these data: Where the call is inconclusive, the potency comes from a doubtful curve fit. A structure can be active in one record and inactive in another. Active and inactive are the calls of the source. Unless noted, the call rests on the fitted dose curve; in most records, active means well fitted curve in the direction sought with a large enough effect in the repeat runs; inconclusive means weak or mixed curves; inactive means no such curve, though single readings can be large; an effect the other way counts as inactive or inconclusive.

Legend:
[1] = molecular target: Androgen receptor (Homo sapiens) (UniProt P10275); test: qHTS assay to identify small molecule agonists of the androgen receptor (AR) signaling pathway (AID 743036; active means well fitted activation curve with a large enough effect in the signal ratio in the repeat runs, with a control signal flat, not every such curve was filed as active; inconclusive means weak or mixed curves, or effect the other way; inactive means no such curve, though single readings can be large or run the other way; the % refers to the signal ratio; further: on the % scale 0 is the no-effect control and ±100 the full control effect); settings: HEK293 AR-UAS-bla GripTite, beta-lactamase FRET ratio, 16 h; activation: at 62.4 µM (top of the series) unless noted
Summary of the method: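 Following a 4 h settling period, AR-UAS-bla HEK293 cells were dosed with compounds for 16 h at 37C. A 2 h room-temperature incubation with LiveBLAzer B/G FRET substrate preceded the fluorescence measurement.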

[2] = qHTS assay to identify small molecule agonists of the estrogen related receptor signaling pathway with the pleiotropic PPARgamma coactivator (PGC) from Tox21 10K library (AID 1224842); further: nearly all actives have a fitted effect of over 15% in size; further: potency means the concentration at half of the fitted maximal effect; on activation: on the % scale 0 is the no-effect control and ±100 the full control effect
Summary of the method: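 Luminescence from One-Glo (30 min, room temperature) measured after PGC/ERR cells had 18 h at 37 C with pinned compound (23 nL in DMSO). Cells had been seeded at 2,000 per well and pre-incubated 6 h.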

[3] = qHTS assay to identify small molecule antagonists of the farnesoid-X-receptor (FXR) signaling pathway - cell viability counter screen (AID 743221; active means well fitted cell-killing curve with a large enough effect in the repeat runs, not every such curve was filed as active; inconclusive means weak or mixed curves, or effect the other way; inactive means no such curve, though single readings can be large or run the other way; further: nearly all actives have a fitted effect of over 50% in size; further: potency means the concentration at half of the fitted maximal effect); settings: FXR-bla HEK293T viability, CellTiter-Glo luminescence, 16 h; activity change, negative = cytotoxicity: at 62.6 µM (top of the series) unless noted
Summary of the method: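 Here viability was scored by luminescence after CellTiter-Glo addition to wells already read for beta-lactamase. Prior treatment: compound plus CDCA (50 uM final), 16 h, 37 C, HEK 293T FXR-bla cells.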

[4] = qHTS assay for small molecule disruptors of the mitochondrial membrane potential - cell viability (AID 720634; calls by dose curve; further: potency means the concentration at half of the fitted maximal effect; nearly all actives have a fitted effect of over 20% in size)
Summary of the method: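 Viability of HepG2 cells is scored from ATP content by luminescence; cells are exposed to compound for 1 hr at 37 C and 5% CO2, then dosed with m-MPI dye before the CellTiter-Glo reagent.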

[5] = molecular target: Thyrotropin-releasing hormone receptor (Homo sapiens) (UniProt P34981); test: qHTS assay to identify small molecule antagonists of the thyrotropin-releasing hormone receptor (TRHR) signaling pathway (AID 1346877; active means well fitted inhibition curve with a large enough effect in the repeat runs, not every such curve was filed as active; inconclusive means weak or mixed curves; further: on the % scale 0 is the no-effect control and ±100 the full control effect)
Summary of the method: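 Calcium signal in dye-loaded TRHR/HEK293 cells; compounds added 5 min before TRH (1 nM final); fluorescence monitored 3 min at 1 s steps.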

[6] = molecular target: Nuclear receptor subfamily 1 group I member 2 (Rattus norvegicus) (UniProt Q9R1A7); test: Rat pregnane X receptor (rPXR) activation by small molecules, qHTS assay (AID 1346983); settings: rPXR luciferase reporter cells, One-Glo luminescence, 24 h; max activation: hits give high values; further: potency means the concentration at half of the fitted maximal effect; nearly all actives have a fitted effect of over 20% in size
Summary of the method: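 Luminescent readout (One-Glo luciferase, 30 min room temperature) followed 24 hr compound treatment at 37 C of rPXR cells plated 2,000 per well and preincubated 5hr; qHTS format with compounds delivered in DMSO.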

[7] = qHTS assay to identify small molecule antagonists of the glucocorticoid receptor (GR) signaling pathway - cell viability counter screen (AID 720693); settings: GR-bla HeLa viability, CellTiter-Glo luminescence, 18 h, with 5 nM dexamethasone present; viability change, negative = cytotoxic: at 58.5 µM (top of the series) unless noted; further: nearly all actives have a fitted effect of over 55% in size; further: potency means the concentration at half of the fitted maximal effect
[8] = qHTS assay for small molecule agonists of the antioxidant response element (ARE) signaling pathway - cell viability counter screen (AID 743203; calls by dose curve; further: nearly all actives have a fitted effect of over 55% in size; further: potency means the concentration at half of the fitted maximal effect); settings: ARE-bla HepG2 viability, CellTiter-Glo luminescence, 16 h; viability change, negative = cytotoxic: at 73.3 µM (top of the series)
Summary of the method: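 ATP content via CellTiter-Glo luminescence served as the viability measure. Cells: ARE-bla HepG2, 2,000 per well. Exposure: 16 hrs, 37C/5% CO2.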

[9] = A CellTox Green Cytotoxicity Assay to monitor cytotoxicity in HEK293 cells - 0 hour (AID 1224869); further: potency means the concentration at half of the fitted maximal effect; nearly all actives have a fitted effect of over 50% in size
Summary of the method: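 Real-time, in one plate: 600 HEK293 cells/well with dead-cell DNA dye, pinned compound after 5 h, 37 C incubation over 40 h; viable cells give no appreciable fluorescence.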

[10] = molecular target: Nuclear receptor subfamily 1 group I member 2 (Homo sapiens) (UniProt O75469); test: CYP3A4 induction through human pregnane X receptor (PXR) by small molecules, qHTS assay (AID 1346984); settings: DPX-2 HepG2 PXR, CYP3A4-luciferin luminescence, 24 h; activation: at 46.1 µM (top of the series); further: nearly all actives have a fitted effect of over 40% in size; further: potency means the concentration at half of the fitted maximal effect
Summary of the method: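 Cells (DPX-2; HepG2 with PXR element plus CYP3A4-promoter luciferase) settled 5hr, then were treated 24hr at 37C. A 3hr, 3uM-final Luciferin-IPA step preceded luminescence measurement with One-Glo.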

[11] = qHTS assay to identify small molecule agonists of the TGF-beta/Smad signaling pathway - cell viability counter screen (AID 1346829); further: potency means the concentration at half of the fitted maximal effect; nearly all actives have a fitted effect of over 45% in size
Summary of the method: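 After overnight seating at 37 C and 5% CO2, reporter cells got compounds for 5 hr and FRET substrate for 2 hr; cell viability then came from CellTiter-Glo luminescence.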

[12] = molecular target: Androgen receptor (Homo sapiens) (UniProt P10275); test: qHTS assay to identify small molecule antagonists of the androgen receptor (AR) signaling pathway (AID 743035; active means well fitted inhibition curve with a large enough effect in the signal ratio in the repeat runs, not every such curve was filed as active; inconclusive means weak or mixed curves, or effect the other way; inactive means no such curve, though single readings can be large or run the other way; the % refers to the signal ratio; further: on the % scale 0 is the no-effect control and ±100 the full control effect); settings: HEK293 AR-UAS-bla, R1881-stimulated, beta-lactamase FRET, 16 h; activity change, negative = inhibition: at 58.5 µM (top of the series) unless noted
Summary of the method: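 Reporter HEK293 cells were exposed to compounds and R1881 overnight (16 h, 37C); beta-lactamase activity was then quantified by FRET fluorescence.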

[13] = molecular target: Androgen receptor (Homo sapiens) (UniProt P10275); test: qHTS assay to identify small molecule antagonists of the androgen receptor (AR) signaling pathway using the MDA cell line in the presence of 0.5 nM R1881 (AID 1259243); further: potency means the concentration at half of the fitted maximal effect; nearly all actives have a fitted effect of over 50% in size
Summary of the method: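 Luminescence from an AR/GR-responsive MMTV-luciferase construct in MDA-kb2 breast carcinoma cells, read 30 min after ONE-Glo, following 16 hr co-treatment with compounds and 0.5 nM R1881.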

[14] = qHTS assay to identify small molecule agonists of the estrogen related receptor (ERR) signaling pathway from Tox21 library (AID 1224849; calls by dose curve; further: on the % scale 0 is the no-effect control and ±100 the full control effect; nearly all actives have a fitted effect of over 15% in size); settings: ERR reporter cell line, ONE-Glo luciferase, 18 h; at 92.4 µM (top of the series) unless noted
Summary of the method: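 Luciferase activity in ERR pathway reporter cells served as the agonist readout; exposure lasted 18 h at 37 C, with ONE-Glo detection after 30 min at room temperature.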

[15] = molecular target: Estrogen receptor (Homo sapiens) (UniProt P03372); test: qHTS assay to identify small molecule agonists of the estrogen receptor alpha (ER-alpha) signaling pathway in the presence of an antagonist (AID 1259383; calls by dose curve; further: potency means the concentration at half of the fitted maximal effect; nearly all actives have a fitted effect of over 15% in size)
Summary of the method: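 Luminescent ERE-luciferase reporter, VM7Luc4E2 cells (endogenous ER-alpha); 10.0nM ICI-182,780 final; 15-point compound titration; 22hr at 37C; ONE-Glo, 30min RT.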

[16] = molecular target: Acetylcholinesterase (Homo sapiens) (UniProt P22303); test: Acetylcholinesterase (AChE) small molecule antagonists: enzyme-based qHTS assay with human liver microsomes (AID 1347399; calls by dose curve; further: potency means the concentration at half of the fitted maximal effect; nearly all actives have a fitted effect of over 60% in size); settings: Potency: qHTS inhibition
Summary of the method: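 Recombinant human AChE (50 mU/mL in the enzyme mix) and human liver microsomes (0.25 mg/mL final) were preincubated with compound and NADPH (0.25 mg/mL final) for 30 min at 37 C. Acetylthiocholine/DTNB was then added; thiocholine was read colorimetrically after 10 min at room temperature.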

[17] = A CellTox Green Cytotoxicity Assay to monitor cytotoxicity in HepG2 cells - 16 hour (AID 1224876); further: potency means the concentration at half of the fitted maximal effect; nearly all actives have a fitted effect of over 45% in size
Summary of the method: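 Cytotoxicity was tracked as dead-cell DNA fluorescence in HepG2 cells treated with test compounds at 37 C; each time-point value comes from one kinetic series spanning 0, 8, 16, 24, 32 and 40 h.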

[18] = qHTS assay to identify small molecule HDAC inhibitors - cell viability counter screen (AID 1259365); further: potency means the concentration at half of the fitted maximal effect; nearly all actives have a fitted effect of over 50% in size
Summary of the method: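 Measured quantity is CellTiter-Glo luminescence from wild-type HCT-116 cells after compound incubation of 2hr at 37C, 5% CO2; reagent developed 30min at room temperature.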

[19] = qHTS assay to identify small molecule phospholipidosis (PLD) inducers (AID 1259344; active means well fitted curve in the direction sought with a large enough effect; inconclusive means small, poorly fitted or top-dose-only effect, or another doubt; inactive means no such curve, though single readings can be large; an effect the other way counts as inactive or inconclusive; further: potency means the concentration at half of the fitted maximal effect)
Summary of the method: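 Phospholipid accumulation was scored by imaging: fixed, Hoechst-counterstained HepG2 cells stained with LipidTOX Red after 24 h compound exposure at 37 C. Read-outs were pit count and pit intensity per well or per cell, with amiodarone and DMSO controls.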
Tags describe the fitted curve by direction and shape.

Chain of UniProt P10275 (P10275 whole entry, looked up): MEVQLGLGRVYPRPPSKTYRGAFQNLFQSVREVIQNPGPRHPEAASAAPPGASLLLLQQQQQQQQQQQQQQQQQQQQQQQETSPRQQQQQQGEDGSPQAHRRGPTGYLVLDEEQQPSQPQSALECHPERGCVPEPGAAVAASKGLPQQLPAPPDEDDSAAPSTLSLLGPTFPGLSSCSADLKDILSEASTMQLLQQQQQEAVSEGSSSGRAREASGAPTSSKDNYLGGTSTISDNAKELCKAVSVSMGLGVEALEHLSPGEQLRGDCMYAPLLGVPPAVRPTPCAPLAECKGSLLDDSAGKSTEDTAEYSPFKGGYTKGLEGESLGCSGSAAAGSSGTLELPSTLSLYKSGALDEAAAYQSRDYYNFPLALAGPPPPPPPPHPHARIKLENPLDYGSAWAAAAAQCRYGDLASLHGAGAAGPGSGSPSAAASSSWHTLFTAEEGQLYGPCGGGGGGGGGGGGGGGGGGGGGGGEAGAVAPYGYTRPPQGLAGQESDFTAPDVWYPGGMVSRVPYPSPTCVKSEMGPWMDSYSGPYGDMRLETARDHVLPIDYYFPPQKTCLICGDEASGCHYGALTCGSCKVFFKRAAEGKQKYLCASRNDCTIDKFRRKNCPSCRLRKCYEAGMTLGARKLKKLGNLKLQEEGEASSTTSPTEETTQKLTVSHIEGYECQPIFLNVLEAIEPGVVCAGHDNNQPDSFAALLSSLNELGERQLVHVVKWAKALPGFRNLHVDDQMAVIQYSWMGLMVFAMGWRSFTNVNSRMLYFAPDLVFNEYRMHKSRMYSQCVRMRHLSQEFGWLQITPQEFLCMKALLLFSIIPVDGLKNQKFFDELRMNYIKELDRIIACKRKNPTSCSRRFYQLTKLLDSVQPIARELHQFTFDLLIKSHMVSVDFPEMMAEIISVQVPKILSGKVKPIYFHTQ
Chain of UniProt Q9R1A7 (Q9R1A7 whole entry, looked up): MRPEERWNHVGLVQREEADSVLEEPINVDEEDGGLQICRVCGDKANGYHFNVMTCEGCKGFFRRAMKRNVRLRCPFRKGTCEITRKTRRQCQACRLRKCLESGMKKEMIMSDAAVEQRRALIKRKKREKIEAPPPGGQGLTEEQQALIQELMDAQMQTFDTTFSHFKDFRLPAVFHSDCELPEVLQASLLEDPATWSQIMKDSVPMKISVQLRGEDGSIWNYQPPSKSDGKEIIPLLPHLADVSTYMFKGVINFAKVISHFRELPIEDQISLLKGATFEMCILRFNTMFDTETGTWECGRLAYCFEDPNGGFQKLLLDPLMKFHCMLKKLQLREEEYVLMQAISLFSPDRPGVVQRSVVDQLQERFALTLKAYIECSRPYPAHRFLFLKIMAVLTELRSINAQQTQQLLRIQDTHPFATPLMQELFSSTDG
Chain of UniProt P22303 (P22303 whole entry, looked up): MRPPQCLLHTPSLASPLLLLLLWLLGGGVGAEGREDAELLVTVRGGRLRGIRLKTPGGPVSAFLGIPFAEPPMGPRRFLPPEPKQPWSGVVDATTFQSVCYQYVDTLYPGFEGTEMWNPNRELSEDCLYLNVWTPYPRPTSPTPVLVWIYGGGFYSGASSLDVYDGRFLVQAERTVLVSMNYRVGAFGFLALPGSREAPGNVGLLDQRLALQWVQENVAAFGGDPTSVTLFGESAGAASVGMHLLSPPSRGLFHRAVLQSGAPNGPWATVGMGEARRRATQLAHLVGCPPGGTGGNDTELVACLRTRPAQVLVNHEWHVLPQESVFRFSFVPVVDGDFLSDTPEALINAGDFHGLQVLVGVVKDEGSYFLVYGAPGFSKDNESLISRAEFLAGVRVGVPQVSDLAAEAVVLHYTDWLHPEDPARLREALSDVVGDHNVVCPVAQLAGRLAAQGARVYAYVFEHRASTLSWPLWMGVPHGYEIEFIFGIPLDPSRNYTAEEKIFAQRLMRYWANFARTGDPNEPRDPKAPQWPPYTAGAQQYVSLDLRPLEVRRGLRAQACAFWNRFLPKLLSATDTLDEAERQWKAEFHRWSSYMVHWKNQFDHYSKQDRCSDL
Chain of UniProt P34981 (P34981 whole entry, looked up): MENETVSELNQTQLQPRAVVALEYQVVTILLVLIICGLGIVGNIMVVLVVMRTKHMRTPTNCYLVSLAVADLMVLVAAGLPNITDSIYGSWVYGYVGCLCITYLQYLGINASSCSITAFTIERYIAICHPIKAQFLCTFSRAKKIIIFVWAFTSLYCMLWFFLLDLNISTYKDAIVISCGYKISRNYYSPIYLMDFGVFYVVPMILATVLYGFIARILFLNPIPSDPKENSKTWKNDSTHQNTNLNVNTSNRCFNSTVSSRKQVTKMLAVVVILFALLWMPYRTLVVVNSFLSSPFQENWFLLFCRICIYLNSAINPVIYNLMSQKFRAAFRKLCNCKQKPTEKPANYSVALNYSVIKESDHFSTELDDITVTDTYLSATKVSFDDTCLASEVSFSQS
Chain of UniProt P03372 (P03372 whole entry, looked up): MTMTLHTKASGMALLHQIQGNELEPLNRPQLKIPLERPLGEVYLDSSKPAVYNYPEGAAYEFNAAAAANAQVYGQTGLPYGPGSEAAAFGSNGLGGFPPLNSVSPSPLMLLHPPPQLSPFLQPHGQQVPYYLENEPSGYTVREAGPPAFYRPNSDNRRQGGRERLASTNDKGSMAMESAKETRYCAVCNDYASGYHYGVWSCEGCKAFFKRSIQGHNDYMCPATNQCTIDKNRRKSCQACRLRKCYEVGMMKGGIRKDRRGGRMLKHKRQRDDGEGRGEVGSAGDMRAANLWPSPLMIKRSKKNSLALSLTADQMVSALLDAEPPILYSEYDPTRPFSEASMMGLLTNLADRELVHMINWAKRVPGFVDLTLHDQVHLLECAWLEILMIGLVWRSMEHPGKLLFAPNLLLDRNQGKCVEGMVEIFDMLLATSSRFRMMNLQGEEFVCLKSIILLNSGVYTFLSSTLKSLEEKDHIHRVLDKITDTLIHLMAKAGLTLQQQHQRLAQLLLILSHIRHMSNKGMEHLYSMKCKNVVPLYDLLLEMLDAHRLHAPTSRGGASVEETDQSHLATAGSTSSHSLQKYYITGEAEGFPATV

CC(C)(C)C(=O)CCl
Potency [1]: inactive
Potency [2]: inactive

COc1ccc(N)cc1
Potency [3]: inconclusive: 2.57 µM [falling, full curve, poor fit]

C=CCN1CC[C@]23CCCC[C@H]2[C@H]1Cc1ccc(O)cc13
Potency [4]: inconclusive: 4.22 µM [cytotoxic, partial curve, poor fit]

Cn1[nH]nnc1=S
Potency [5]: inactive

CC(Cc1ccccc1)NCc1ccccc1Cl (stereo not drawn)
Potency [6]: inconclusive: 31.6 µM [activator, single point]

O=[N+]([O-])c1cc([As](=O)(O)O)ccc1O
Potency [6]: active: 12.6 µM

ClSC(Cl)(Cl)Cl
Potency [7]: inactive

CN1C(=S)CN=C(c2ccccc2)c2cc(Cl)ccc21
Potency [8]: inactive
Potency [9]: active: 5.35 µM
Potency [10]: inconclusive: 1.58 µM [activator, full curve, poor fit]

O=P(OCCCl)(OCCCl)OCCCl
Potency [3]: inactive
Potency [2]: inconclusive: 21.5 µM [activator, partial curve]

CNC(=O)O/N=C/C(C)(C)S(C)=O (stereo not drawn)
Potency [11]: active: 24.9 µM

C=CC(=O)OCCCCCC(C)C
Potency [12]: inactive

CCOP(=S)(OCC)SCS(=O)(=O)C(C)(C)C
Potency [13]: inconclusive: 68.6 µM [inhibitor, single point]

O=c1oc2ccccc2c(O)c1C1CCCc2ccccc21 (stereo not drawn)
Potency [4]: inconclusive: 61.1 µM [cytotoxic, partial curve, poor fit]

CC(C)c1ccc(NC(=O)N(C)C)cc1
Potency [2]: inconclusive: 54.4 µM [activator, partial curve]
activity change, positive = activation [14]: active: 33.4%

CC[C@]1(O)CC[C@H]2[C@@H]3CCC4=CCCC[C@@H]4[C@H]3CC[C@@]21C
Potency [7]: active: 3.01 µM
Potency [2]: inconclusive: 11.9 µM [activator, full curve, poor fit]
Potency [15]: active: 0.0019 µM
Potency [10]: inactive

CC(=O)NNc1ccccc1
Potency [1]: inactive

CCOP(=O)(Sc1ccccc1)Sc1ccccc1
Potency [16]: inconclusive: 89.4 µM [falling, single point]

CCNS(=O)(=O)C(F)(F)C(F)(F)C(F)(F)C(F)(F)C(F)(F)C(F)(F)C(F)(F)C(F)(F)F
activity change, negative = inhibition [12]: inconclusive: 27.7%
Potency [1]: inactive
Potency [8]: inconclusive: 26.1 µM [cytotoxic, full curve]

C[N+](C)(C)CC1CO1 (stereo not drawn)
Potency [1]: inactive

CC(C)(c1ccc(O)c(-c2ccccc2)c1)c1ccc(O)c(-c2ccccc2)c1
Potency [17]: inconclusive: 54.9 µM [activator, single point]
Potency [18]: inconclusive: 61.1 µM [cytotoxic, partial curve]

CC1CCCCC1NC(=O)Nc1ccccc1 (stereo not drawn)
Potency [8]: inactive

COc1cc(CC(C)N)c(OC)cc1Br (stereo not drawn)
Potency [19]: inconclusive: 35.5 µM [activator, single point] and inconclusive: 25.1 µM [activator, single point]
